In assay [1] the target is myc-tagged HSP70-1 (HSP70-1-myc) (Arabidopsis thaliana) (UniProt P22953). The assay can be described thus: co-IP; RHD6-GFP, HSP70-1-myc and AHL17-FLAG co-expressed in N. benthamiana leaves; precipitated with anti-myc beads or anti-GFP beads; western blot with anti-GFP, anti-myc and anti-FLAG. Background: A western blot detects proteins with antibodies after separation by electrophoresis.

The chains behind the UniProt entries cited, without tags or fusion partners.
UniProt P22953: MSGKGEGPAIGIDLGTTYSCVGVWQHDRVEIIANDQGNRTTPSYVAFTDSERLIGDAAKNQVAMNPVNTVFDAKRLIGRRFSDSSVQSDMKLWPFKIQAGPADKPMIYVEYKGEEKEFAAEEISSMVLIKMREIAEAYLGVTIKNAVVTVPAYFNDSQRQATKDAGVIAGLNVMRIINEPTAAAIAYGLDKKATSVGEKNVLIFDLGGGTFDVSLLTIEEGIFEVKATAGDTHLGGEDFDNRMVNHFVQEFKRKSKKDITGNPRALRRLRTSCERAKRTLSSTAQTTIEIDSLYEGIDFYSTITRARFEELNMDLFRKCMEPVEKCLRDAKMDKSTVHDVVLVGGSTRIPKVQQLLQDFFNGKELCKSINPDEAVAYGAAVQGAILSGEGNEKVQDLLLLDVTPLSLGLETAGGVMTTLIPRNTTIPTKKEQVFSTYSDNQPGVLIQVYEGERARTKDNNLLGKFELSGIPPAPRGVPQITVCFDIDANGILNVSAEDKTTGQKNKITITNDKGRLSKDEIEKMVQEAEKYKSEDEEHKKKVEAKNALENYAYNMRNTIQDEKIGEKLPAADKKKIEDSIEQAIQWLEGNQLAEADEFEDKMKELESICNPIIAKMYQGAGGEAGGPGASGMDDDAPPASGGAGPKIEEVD
UniProt P22954: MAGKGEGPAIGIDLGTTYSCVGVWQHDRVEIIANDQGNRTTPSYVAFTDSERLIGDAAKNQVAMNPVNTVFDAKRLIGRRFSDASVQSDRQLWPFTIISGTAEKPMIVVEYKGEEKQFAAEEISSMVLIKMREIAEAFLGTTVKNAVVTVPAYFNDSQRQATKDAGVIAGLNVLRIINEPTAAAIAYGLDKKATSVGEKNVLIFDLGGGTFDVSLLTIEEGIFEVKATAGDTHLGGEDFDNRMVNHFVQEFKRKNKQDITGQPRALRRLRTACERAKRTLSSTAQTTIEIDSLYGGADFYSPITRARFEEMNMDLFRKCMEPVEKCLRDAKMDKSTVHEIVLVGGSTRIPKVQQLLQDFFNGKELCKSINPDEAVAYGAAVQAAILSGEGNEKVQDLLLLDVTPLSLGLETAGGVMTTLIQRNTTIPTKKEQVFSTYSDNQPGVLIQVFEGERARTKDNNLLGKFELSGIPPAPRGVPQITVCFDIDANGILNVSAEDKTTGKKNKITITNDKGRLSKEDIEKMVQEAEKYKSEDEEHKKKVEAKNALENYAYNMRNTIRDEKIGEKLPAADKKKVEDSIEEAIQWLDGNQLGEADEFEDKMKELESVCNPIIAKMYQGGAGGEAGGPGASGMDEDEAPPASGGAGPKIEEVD
UniProt Q9S9N1: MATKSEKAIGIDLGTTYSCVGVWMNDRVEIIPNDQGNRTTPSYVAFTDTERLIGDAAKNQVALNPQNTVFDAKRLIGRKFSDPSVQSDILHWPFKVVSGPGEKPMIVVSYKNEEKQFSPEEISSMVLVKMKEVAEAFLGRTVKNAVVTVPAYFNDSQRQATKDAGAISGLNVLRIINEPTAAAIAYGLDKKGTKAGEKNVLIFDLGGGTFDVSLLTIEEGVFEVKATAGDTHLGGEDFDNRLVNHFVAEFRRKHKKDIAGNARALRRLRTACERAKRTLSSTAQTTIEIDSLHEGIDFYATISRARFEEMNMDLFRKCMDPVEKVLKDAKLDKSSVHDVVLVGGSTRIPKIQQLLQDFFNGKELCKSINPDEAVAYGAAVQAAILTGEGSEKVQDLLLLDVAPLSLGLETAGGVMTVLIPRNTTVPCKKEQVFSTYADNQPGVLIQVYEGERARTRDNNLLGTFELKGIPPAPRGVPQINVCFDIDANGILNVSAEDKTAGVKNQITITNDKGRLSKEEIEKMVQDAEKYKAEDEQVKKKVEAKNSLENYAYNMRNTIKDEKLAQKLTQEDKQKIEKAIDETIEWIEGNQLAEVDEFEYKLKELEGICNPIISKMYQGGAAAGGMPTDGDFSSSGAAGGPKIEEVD

Assay [2] addresses AT-HOOK MOTIF NUCLEAR LOCALIZED 17 (AHL17), luciferase-half fusions for LCI (Arabidopsis thaliana) (UniProt Q9LTA2). The assay can be described thus: split reporter; luciferase complementation imaging (LCI, also printed LIC): X-nLUC and cLUC-Y co-infiltrated by Agrobacterium into N. benthamiana leaves; LUC activity detected 2 days after infiltration.
For assay [3], the target named is T1, AT-HOOK MOTIF NUCLEAR LOCALIZED 28 (AHL28), luciferase-half fusions for LCI (Arabidopsis thaliana) (UniProt Q9M9R4).
T1 sequence: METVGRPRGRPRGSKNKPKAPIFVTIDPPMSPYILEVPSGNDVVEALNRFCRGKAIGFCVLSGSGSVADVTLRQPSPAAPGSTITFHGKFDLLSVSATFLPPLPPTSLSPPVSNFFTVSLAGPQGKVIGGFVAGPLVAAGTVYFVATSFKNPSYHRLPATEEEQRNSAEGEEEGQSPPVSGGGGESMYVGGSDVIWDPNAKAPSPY
The assay is described as above.

For assay [4], the target named is T2, ROOT HAIR …6 (RHD6), luciferase-half fusion for LCI (Arabidopsis thaliana) (UniProt Q9C707).
T2 sequence: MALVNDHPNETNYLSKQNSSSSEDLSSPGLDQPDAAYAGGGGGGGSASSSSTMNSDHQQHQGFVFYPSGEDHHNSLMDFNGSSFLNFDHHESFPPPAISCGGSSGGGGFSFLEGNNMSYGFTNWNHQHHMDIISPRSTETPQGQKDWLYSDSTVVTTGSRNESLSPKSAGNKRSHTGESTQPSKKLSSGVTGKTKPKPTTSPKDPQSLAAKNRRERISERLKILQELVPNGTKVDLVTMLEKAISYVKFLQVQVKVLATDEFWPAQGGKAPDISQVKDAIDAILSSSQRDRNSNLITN
The assay is described as above.

The target in assay [5] is AHL17, YFP-half fusion for BiFC (Arabidopsis thaliana) (UniProt Q9LTA2). The assay can be described thus: split reporter; BiFC: nYFP and cYFP fusions co-infiltrated into N. benthamiana leaves; YFP fluorescence examined 2 days after infiltration by confocal microscopy.
The target in assay [6] is T3, AHL28, YFP-half fusions for BiFC (Arabidopsis thaliana) (UniProt Q9M9R4).
T3 sequence: T1 sequence
Described as above.

For assay [7], the target named is T4, RHD6, nYFP fusion for BiFC (Arabidopsis thaliana) (UniProt Q9C707).
T4 sequence: T2 sequence
Described as above.

Assay [8] concerns the target AHL17, yeast two-hybrid fusion (Arabidopsis thaliana) (UniProt Q9LTA2). The assay can be described thus: two-hybrid; yeast two-hybrid experiments named only in the discussion; no format told.
Assay [9] has as its target GFP-tagged AHL17 (AHL17-GFP) (Arabidopsis thaliana) (UniProt Q9LTA2). Nature of the assay: co-IP; two constructs co-expressed in N. benthamiana leaves; total proteins precipitated with anti-GFP Magarose beads, 4°C, 1 h, washed at least six times; western blot with anti-GFP and anti-myc.
The target of assay [10] is T5, RHD6-GFP (Arabidopsis thaliana) (UniProt Q9C707).
T5 sequence: T2 sequence
The assay is described as above.

These are yes or no findings as the source states them, for the method shown. For part of these data: Binding seen in cells or lysates may run through a third protein. Some binding calls cover weakened binding; strength is not graded here. For part of these data: Tags and fused reporters may be left off the sequences shown.

Take AHL17-FLAG (from UniProt Q9LTA2 1-276): the binding result in assay [1] is “binds”.

Take “AT-HOOK MOTIF NUCLEAR LOCALIZED 17 (AHL17), luciferase-half fusions for LCI (from UniProt Q9LTA2 1-276)”: the binding result in assay [2] and in assay [3] was “binds” throughout.

With “HEAT SHOCK PROTEIN 70-1 (HSP70-1), cLUC fusion for LCI (from UniProt P22953 1-651)”, the binding result in assay [2], in assay [3] and in assay [4] was “binds” in each case.

Regarding “HSP70-1, YFP-half fusions for BiFC (from UniProt P22953 1-651)”, the binding entry in [5], in assay [6] and in assay [7] was “binds” in each case.

Turning to “HSP70-1, yeast two-hybrid fusion (from UniProt P22953 1-651)”, the binding entry in assay [8] is given as “binds”.

On to “HSP70-2, YFP-half fusion for BiFC (from UniProt P22954 1-653)”, for which the binding result in assay [5] and in [6] was “binds” each time.

For “HSP70-2, cLUC fusion for LCI (from UniProt P22954 1-653)”, the binding result in [2] and in assay [3] was “binds” in each case.

Turning to “HSP70-2, yeast two-hybrid fusion (from UniProt P22954 1-653)”, in assay [8], the binding entry is “binds”.

“HSP70-5, cLUC fusion for LCI (from UniProt Q9S9N1 1-646)”: the binding result in assay [2] is recorded as “no binding”.

Turning to “myc-tagged HSP70-1 (HSP70-1-myc) (from UniProt P22953 1-651)”, the binding result in assay [9] and in [10] was “binds” throughout.
